From publication PMC12820563 come the findings set out here.

Some of the results follow. The list includes weakly bound sequences.

This assay addresses T1, MBP-FoxP3dN (UniProt Q99JB6).
T1 sequence: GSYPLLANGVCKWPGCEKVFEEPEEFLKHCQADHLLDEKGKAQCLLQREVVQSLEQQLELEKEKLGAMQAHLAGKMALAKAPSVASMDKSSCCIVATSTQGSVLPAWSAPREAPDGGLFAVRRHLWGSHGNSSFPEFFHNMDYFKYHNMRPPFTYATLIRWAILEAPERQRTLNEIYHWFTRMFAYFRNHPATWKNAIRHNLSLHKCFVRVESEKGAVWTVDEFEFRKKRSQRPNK
Kind of assay: PD-seq (MBP pull-down with sequencing). Conditions: 20 mM Tris-HCl pH 7.5, 100 mM NaCl, 1.5 mM MgCl2, 0.4 uM protein, 0.1 uM dsDNA library, 30 min, room temperature, amylose pull-down; high values mean tight binding; double strand, one strand shown.
On to “GATGATTGTTCTCCCAGCTGATGAATTTAAAGAATCGAGTAAACAAATTTTCCTAATCTTTCTGTTCAAGCGCCATCTAC”, for which the binding signal (RPM ratio (pull-down/input)) turned out to be 0.177. With “GATGATTGTTCTCCCAGCTGATGAATTAAACCAGTCGAGTAAACAAATTTTCCTAATCTTTCTGTTCAAGCGCCATCTAC” the figure was 0.361; with “GATGATTGTTCTCCCAGCTGATGAATTGGCTGCGTCGAGTAAACAAATTTTCCTAATCTTTCTGTTCAAGCGCCATCTAC”, 0.563. As to “GATGATTGTTCTCCCAGCTGATGAATTAGACTTTTCGAGTAAACAAATTTTCCTAATCTTTCTGTTCAAGCGCCATCTAC”, the binding signal (RPM ratio (pull-down/input)) stood at 0.478. To “GATGATTGTTCTCCCAGCTGATGAATTGTTATATTCGAGTAAACAAATTTTCCTAATCTTTCTGTTCAAGCGCCATCTAC” belongs 1.27; to “GATGATTGTTCTCCCAGCTGATGAATTAGCGATATCGAGTAAACAAATTTTCCTAATCTTTCTGTTCAAGCGCCATCTAC”, 0.612; to “GATGATTGTTCTCCCAGCTGATGAATTTGGGAGTTCGAGTAAACAAATTTTCCTAATCTTTCTGTTCAAGCGCCATCTAC”, 0.45.

As to “GATGATTGTTCTCCCAGCTGATGAATTGTTAACATCGAGTAAACAAATTTTCCTAATCTTTCTGTTCAAGCGCCATCTAC”, the binding signal (RPM ratio (pull-down/input)) worked out at 1.08.

For “GATGATTGTTCTCCCAGCTGATGAATTGCACGCATCGAGTAAACAAATTTTCCTAATCTTTCTGTTCAAGCGCCATCTAC”, the binding signal (RPM ratio (pull-down/input)) was determined as 1.94. For the sequence “GATGATTGTTCTCCCAGCTGATGAATTAACGGACTCGAGTAAACAAATTTTCCTAATCTTTCTGTTCAAGCGCCATCTAC”, the binding signal (RPM ratio (pull-down/input)) came out at 0.244. “GATGATTGTTCTCCCAGCTGATGAATTGTGAAAATCGAGTAAACAAATTTTCCTAATCTTTCTGTTCAAGCGCCATCTAC”: the binding signal (RPM ratio (pull-down/input)) is 0.302.

As for “GATGATTGTTCTCCCAGCTGATGAATTCAGTCTATCGAGTAAACAAATTTTCCTAATCTTTCTGTTCAAGCGCCATCTAC”, the binding signal (RPM ratio (pull-down/input)) came out at 0.735.

As to “GATGATTGTTCTCCCAGCTGATGAATTCGGCGCCTCGAGTAAACAAATTTTCCTAATCTTTCTGTTCAAGCGCCATCTAC”, the binding signal (RPM ratio (pull-down/input)) is 1.25. Turning to “GATGATTGTTCTCCCAGCTGATGAATTAAGAGACTCGAGTAAACAAATTTTCCTAATCTTTCTGTTCAAGCGCCATCTAC”, the binding signal (RPM ratio (pull-down/input)) stood at 0.461. To “GATGATTGTTCTCCCAGCTGATGAATTCGTAGCTTCGAGTAAACAAATTTTCCTAATCTTTCTGTTCAAGCGCCATCTAC” belongs 0.732; to “GATGATTGTTCTCCCAGCTGATGAATTGTACGGCTCGAGTAAACAAATTTTCCTAATCTTTCTGTTCAAGCGCCATCTAC”, 0.298.

Regarding “GATGATTGTTCTCCCAGCTGATGAATTGCGCTTATCGAGTAAACAAATTTTCCTAATCTTTCTGTTCAAGCGCCATCTAC”, the binding signal (RPM ratio (pull-down/input)) worked out at 2.48. With “GATGATTGTTCTCCCAGCTGATGAATTTTGACCTTCGAGTAAACAAATTTTCCTAATCTTTCTGTTCAAGCGCCATCTAC” the figure was 0.402; with “GATGATTGTTCTCCCAGCTGATGAATTACGTGTATCGAGTAAACAAATTTTCCTAATCTTTCTGTTCAAGCGCCATCTAC”, 1.74. With “GATGATTGTTCTCCCAGCTGATGAATTCTGTATTTCGAGTAAACAAATTTTCCTAATCTTTCTGTTCAAGCGCCATCTAC” the figure was 4.09; with “GATGATTGTTCTCCCAGCTGATGAATTTCTACAGTCGAGTAAACAAATTTTCCTAATCTTTCTGTTCAAGCGCCATCTAC”, 0.213; with “GATGATTGTTCTCCCAGCTGATGAATTGGGGACCTCGAGTAAACAAATTTTCCTAATCTTTCTGTTCAAGCGCCATCTAC”, 0.306. To “GATGATTGTTCTCCCAGCTGATGAATTTGGCCCGTCGAGTAAACAAATTTTCCTAATCTTTCTGTTCAAGCGCCATCTAC” belongs 1.29; to “GATGATTGTTCTCCCAGCTGATGAATTAACGACTTCGAGTAAACAAATTTTCCTAATCTTTCTGTTCAAGCGCCATCTAC”, 0.485; to “GATGATTGTTCTCCCAGCTGATGAATTATATACATCGAGTAAACAAATTTTCCTAATCTTTCTGTTCAAGCGCCATCTAC”, 1.17. “GATGATTGTTCTCCCAGCTGATGAATTTCTGGTCTCGAGTAAACAAATTTTCCTAATCTTTCTGTTCAAGCGCCATCTAC”: the binding signal (RPM ratio (pull-down/input)) turned out to be 0.34. To “GATGATTGTTCTCCCAGCTGATGAATTGCCTGATTCGAGTAAACAAATTTTCCTAATCTTTCTGTTCAAGCGCCATCTAC” belongs 0.568. “GATGATTGTTCTCCCAGCTGATGAATTAGACCTGTCGAGTAAACAAATTTTCCTAATCTTTCTGTTCAAGCGCCATCTAC”: the binding signal (RPM ratio (pull-down/input)) was found to be 0.341. With “GATGATTGTTCTCCCAGCTGATGAATTTATAAGATCGAGTAAACAAATTTTCCTAATCTTTCTGTTCAAGCGCCATCTAC” the figure was 0.318. To “GATGATTGTTCTCCCAGCTGATGAATTAATCTATTCGAGTAAACAAATTTTCCTAATCTTTCTGTTCAAGCGCCATCTAC” belongs 0.398. In the case of “GATGATTGTTCTCCCAGCTGATGAATTACCGAAGTCGAGTAAACAAATTTTCCTAATCTTTCTGTTCAAGCGCCATCTAC”, the binding signal (RPM ratio (pull-down/input)) is 0.224. To “GATGATTGTTCTCCCAGCTGATGAATTAGCCCTTTCGAGTAAACAAATTTTCCTAATCTTTCTGTTCAAGCGCCATCTAC” belongs 0.284; to “GATGATTGTTCTCCCAGCTGATGAATTTGTTTAGTCGAGTAAACAAATTTTCCTAATCTTTCTGTTCAAGCGCCATCTAC”, 7.22.

For “GATGATTGTTCTCCCAGCTGATGAATTAGAGCGTTCGAGTAAACAAATTTTCCTAATCTTTCTGTTCAAGCGCCATCTAC”, the binding signal (RPM ratio (pull-down/input)) was 1.06. To “GATGATTGTTCTCCCAGCTGATGAATTCACGCCATCGAGTAAACAAATTTTCCTAATCTTTCTGTTCAAGCGCCATCTAC” belongs 1.91. With “GATGATTGTTCTCCCAGCTGATGAATTTCTAGTATCGAGTAAACAAATTTTCCTAATCTTTCTGTTCAAGCGCCATCTAC” the figure was 0.407; with “GATGATTGTTCTCCCAGCTGATGAATTTCAGTCGTCGAGTAAACAAATTTTCCTAATCTTTCTGTTCAAGCGCCATCTAC”, 0.474. With “GATGATTGTTCTCCCAGCTGATGAATTTATGACTTCGAGTAAACAAATTTTCCTAATCTTTCTGTTCAAGCGCCATCTAC” the figure was 0.905; with “GATGATTGTTCTCCCAGCTGATGAATTTACCAGTTCGAGTAAACAAATTTTCCTAATCTTTCTGTTCAAGCGCCATCTAC”, 0.409. As to “GATGATTGTTCTCCCAGCTGATGAATTTCCCAACTCGAGTAAACAAATTTTCCTAATCTTTCTGTTCAAGCGCCATCTAC”, the binding signal (RPM ratio (pull-down/input)) is 0.237.
